# Article PMC11725581, “Developing novel Lin28 inhibitors by computer aided drug design” (Cell Death Discovery, 2025)
# What was measured:
# [1] = tested on: Lin28b-positive DuNE cells; settings: for inhibitory effect on DuNE cell growth / concentration at which dose-dependent inhibition of cell growth starts: 2D conditions
# [2] = tested on: Lin28b-positive DuNE cells; experiment: cells
SMILES,inhibitory effect on DuNE cell growth [1],concentration at which dose-dependent inhibition of cell growth starts ([1]; DuNE cells) [µM],IC50 [2] [µM],other results
O=c1[nH]c(Nc2ccc(F)cc2O)cs1 [Ln268],stronger suppressive effects than Ln15,5,6.29,"cell proliferation, DuNE ([1]; Lin28b-positive DuNE cells): strongly inhibited cell proliferation"
O=c1[nH]c(Nc2ccccc2O)cs1 [Ln15],,5,,
"N.N.[Cl][Pt][Cl] [Cisplatin, cisplatin, reference compound]",,,,"IC50 ([1]; DuNE cells, single agents (Figure S5)): 1.52 µM"
"CC(=O)N(C)c1cccc(-c2ccc3nnc(C)n3n2)c1 [C1632, reference compound]",no inhibitory effects at concentrations below 100 μM,,,
"O[As](O)O [ARS, arsenite, reference compound]",,,,IC50 [1]: 2.73 µM
"COc1cc([C@@H]2c3cc4c(cc3[C@@H](O[C@@H]3O[C@@H]5CO[C@@H](C)O[C@H]5[C@H](O)[C@H]3O)[C@H]3COC(=O)[C@H]23)OCO4)cc(OC)c1O [Etoposide, etoposide, reference compound]",,,0.543,

# Like-named read-outs stand apart in the source and are kept apart here.
